Test results as given in publication PMC4336329 (PLoS ONE, 2015).
Screen size: about 310,000 compounds; about 2,200 (0.71%) showed an effect of 50% or more. The effect is printed as a negative number. The list shows a part of the results.

target: human ether-à-go-go-related gene (hERG) potassium channel (human, UniProt Q12809); experiment: primary screen, population patch clamp on CHO cells stably expressing hERG
Sequence (Q12809 whole entry, looked up): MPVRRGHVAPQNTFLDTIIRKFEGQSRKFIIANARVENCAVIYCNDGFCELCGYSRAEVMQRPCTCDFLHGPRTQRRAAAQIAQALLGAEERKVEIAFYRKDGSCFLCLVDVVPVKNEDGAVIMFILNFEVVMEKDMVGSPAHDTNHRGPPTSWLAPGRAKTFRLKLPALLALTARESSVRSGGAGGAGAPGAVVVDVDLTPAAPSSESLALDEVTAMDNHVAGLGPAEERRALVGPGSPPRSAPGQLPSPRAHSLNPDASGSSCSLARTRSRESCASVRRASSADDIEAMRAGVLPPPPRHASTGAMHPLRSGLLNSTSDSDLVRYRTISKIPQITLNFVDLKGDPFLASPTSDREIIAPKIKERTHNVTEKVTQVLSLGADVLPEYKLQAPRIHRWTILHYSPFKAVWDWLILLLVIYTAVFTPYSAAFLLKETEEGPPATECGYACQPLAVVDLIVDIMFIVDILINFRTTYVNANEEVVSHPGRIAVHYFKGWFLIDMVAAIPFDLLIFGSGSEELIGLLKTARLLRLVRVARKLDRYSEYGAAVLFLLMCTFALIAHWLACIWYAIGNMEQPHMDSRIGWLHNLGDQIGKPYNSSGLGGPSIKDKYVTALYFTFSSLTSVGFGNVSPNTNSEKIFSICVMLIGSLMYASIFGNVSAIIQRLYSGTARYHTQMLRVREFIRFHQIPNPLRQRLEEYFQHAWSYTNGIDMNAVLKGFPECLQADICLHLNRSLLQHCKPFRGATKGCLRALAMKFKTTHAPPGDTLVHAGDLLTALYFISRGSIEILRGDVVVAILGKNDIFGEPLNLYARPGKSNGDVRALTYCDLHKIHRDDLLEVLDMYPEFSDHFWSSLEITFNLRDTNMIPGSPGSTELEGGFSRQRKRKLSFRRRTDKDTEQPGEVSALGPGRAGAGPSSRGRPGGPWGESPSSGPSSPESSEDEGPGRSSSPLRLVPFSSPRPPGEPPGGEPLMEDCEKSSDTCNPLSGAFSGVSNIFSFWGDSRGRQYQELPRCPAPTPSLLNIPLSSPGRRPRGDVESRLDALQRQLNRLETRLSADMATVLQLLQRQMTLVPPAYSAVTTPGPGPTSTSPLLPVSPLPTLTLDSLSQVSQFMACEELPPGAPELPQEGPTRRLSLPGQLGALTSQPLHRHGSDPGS

| SMILES | hERG current change (%, negative = inhibition) at 1uM [%] |
| --- | --- |
| COc1ccc(OC)c(C(=O)COC(=O)C2CC3CCCC(C2)C3=O)c1 (stereo not shown) | 10.9 |
| CC(C)c1cc(-c2n[nH]c(=S)n2Cc2ccccc2)cs1 | 17.1 |
| COc1cc(NS(=O)(=O)c2ccc(N)cc2)nc(OC)n1 | 9.86 |
| CCCC(=O)N1CCN(c2nc3ccccc3s2)CC1 | -9.61 |
| Br.C=CCN1CCc2c(cc(O)c(O)c2Br)[C@@H](c2ccccc2)C1 | 3.89 |
| CCCCN1C(=O)/C(=C2/Sc3ccccc3N2C)S/C1=N\c1ncn[nH]1 | 6.9 |
| Cc1nnc(SCC(=O)NC2CC2)n1CCc1ccccc1 | 7.08 |
| CN(C)C(=O)c1cc(C(=O)c2ccccc2Br)c[nH]1 | 9.15 |
| CCn1cnc2c1c(=O)n(CC(=O)OC)c(=O)n2Cc1ccccc1 | 16.3 |
| COc1ccccc1C1(CCN=Cc2ccc(N(C)C)cc2)CCOC(C)(C)C1 (stereo not shown) | 2.4 |
| Cc1ccc(S(=O)(=O)NCC(=O)N(CC(=O)NCc2ccco2)Cc2cccs2)cc1 | -30.4 |
| COc1ccc(OC)c(-c2nc(CN(C)C(C)c3ccncn3)c(C)o2)c1 (stereo not shown) | 6.56 |
| Cc1ccc(C(=O)Nc2cccc(C(=O)N/N=C/c3ccccc3F)c2)cc1 | 11.5 |
| CCOC(=O)C1(C(F)(F)F)N=C(C(F)(F)F)Nc2cc(C)c(C)cc21 (stereo not shown) | 7.95 |
| COc1ccc(Nc2ccc(N3C(=O)CCCC3=O)cc2[N+](=O)[O-])cc1OC | 24.6 |
| COCc1cc(=O)n2[nH]c(C(C)(C)C)cc2n1 | 14.6 |
| COc1ccc(N2CCN(C(=O)c3c(-c4c(F)cccc4Cl)noc3C)CC2)cc1 | 14.4 |
| Cc1[nH]c2ccc(C(=O)N3CCN(c4ccc(F)cc4)CC3)cc2c1C | 10.4 |
| C=CCn1c(SCC(=O)NCCOC)nnc1-c1cc2c(s1)CCC(CC)C2 (stereo not shown) | 13.5 |
| CN/C(=C/[N+](=O)[O-])NCCSCc1ccc(CN(C)C)o1.Cl | 13.2 |
| COc1ccc(C(=O)Nc2ccc3c(c2)C(=O)c2ccccc2C3=O)cc1OC | 15.9 |
| CC(NC(=O)c1cc2c(s1)CS(=O)(=O)C2)c1ccccc1 (stereo not shown) | 14.7 |

| SMILES | hERG current change (%, negative = inhibition) at 1uM [%] |
| --- | --- |
| C[C@H](NC(=O)c1ccccc1)C(=O)N1CCC2(CC1)NCCc1[nH]cnc12 | 11 |
| C=CCOc1c(Br)cc(CNc2ccc3[nH]c(=O)[nH]c3c2)cc1OCC | 15.1 |
| COCCNC(=O)[C@@H]1CSC2c3ccccc3C(=O)N21 (stereo partly shown) | 4.28 |
| Cc1ccc(NC2c3ncccc3C(=O)N2C2CCCCC2)cc1 (stereo not shown) | 9.66 |
| CN(C)S(=O)(=O)c1cccc(NC(=O)COC(=O)c2cn(-c3ccccc3)nc2-c2ccccc2)c1 | 19.7 |
| CN(C)S(=O)(=O)c1ccc(C(=O)Nc2nc3ccccc3[nH]2)cc1 | 9.87 |
| Cn1c(SCC(=O)N2CCOCC2)nc2sc3c(c2c1=O)CCCC3 | 2.47 |
| CN(C)c1nc(SCC#N)nc(N2CCOCC2)n1 | 12.3 |
| CCn1ncc(CNC(=O)c2cccc([N+](=O)[O-])c2)c1C | 0.549 |
| CN(C)S(=O)(=O)c1ccc(NC(=O)Cc2ccc(S(=O)(=O)N3CCOCC3)s2)cc1 | 8.77 |
| COC(=O)C[C@H]1c2ccccc2S(=O)(=O)N1c1cccc(OC)c1 | 3.39 |
| CCC(=O)Nc1sccc1C(=O)OC | 8.58 |
| CC1CN(CCc2ccccc2)c2nc3c(c(=O)[nH]c(=O)n3C)n2C1 (stereo not shown) | -4.08 |
| CCCN1CCc2c(sc(NC(=O)c3ccc(S(=O)(=O)N4CCCC4)cc3)c2C(N)=O)C1 | 16.4 |
| COc1ccc(CCNC(=O)NC2CCCCC2)cc1OC | 6.75 |
| COc1cccc(CN2CCC(n3nccc3NC(=O)CCCc3ccccc3)CC2)c1 | 0.786 |
| CN1C(=O)c2ccc(NC(=S)NC(=O)C(C)(C)C)cc2C1=O | 23 |
| Cc1cc(NCCCO)n2nc(-c3cccs3)cc2n1 | 1.45 |
| CC(C)(Oc1ccc(Cl)cc1)C(=O)NCc1ccncc1 | 6.96 |
| COc1ccc(C(C(=O)NCc2ccccc2)N(C(=O)c2snc(C(N)=O)c2N)C2CCCC2)cc1 (stereo not shown) | 6.13 |
| Cc1ccc(CN(CC(=O)NCCc2ccccc2)C(=O)c2csnn2)cc1 | -1.37 |
| CC(C(=O)O)c1ccc(N2Cc3ccccc3C2=O)cc1 (stereo not shown) | 18.7 |

| SMILES | hERG current change (%, negative = inhibition) at 1uM [%] |
| --- | --- |
| COc1ccccc1NC(=S)N1CCC(c2nc3ccccc3o2)CC1 | 2.22 |
| CSCC[C@H](NC(=O)OC(C)(C)C)c1nnc(SCC(=O)N(C)C)o1 | 10.3 |
| O=C(Nc1ccc(Cl)c(S(=O)(=O)N2CCCCC2)c1)c1cnccn1 | -2.78 |
| O=S(=O)(Nc1nc2c(s1)CCCC2)c1ccc2ccccc2c1 | 13.4 |
| COc1ccc(OCCCC(=O)Nc2nc(-c3ccccn3)cs2)cc1 | 9.37 |
| CCCCCc1cc(=O)oc2c(C(CCN3CCCCC3)c3ccc4c(c3)OCO4)c(OC)cc(OC)c12 (stereo not shown) | 6.72 |
| COc1cc(C(=O)Nc2cc(-c3ccccc3)[nH]n2)cc(OC)c1OC | -2.63 |
| Cc1ccc(OCC(=O)N/N=C2/SCC(=O)N2Cc2ccccc2)cc1 | 0.612 |
| COCCNC(=O)C(c1cccnc1)N(Cc1ccccc1)C(=O)Cn1nnc2ccccc21 (stereo not shown) | 9.91 |
| Cc1ccc(/C=N/NC(=O)c2nnn(-c3nonc3N)c2CN(C)C)o1 | 15.8 |
| COc1ccnc(N=CNOCc2cccc(C(F)(F)F)c2)c1C#N | 12.8 |
| Cc1cccc(-c2ncc(CN3CCN(CCC(C)C)C(CCO)C3)cn2)c1 (stereo not shown) | -17.4 |
| Cc1[nH]ccc(=O)c1OCc1ccc(Cl)cc1 | 4.38 |
| COc1cc(CNCc2cccnc2)ccc1OCC(=O)NC(C)(C)C.Cl | 3.14 |
| O=C(Cc1ccccc1)NCCS(=O)(=O)N1CCN(c2cccc(Cl)c2)CC1 | -48 |
| CC1(C)CC2CC(C)(CN2C(=O)COC(=O)Cn2[nH]c(=O)c3ccccc3c2=O)C1 (stereo not shown) | 12.8 |
| CCCCC(=O)N1CCCC(c2nc3c(nnn3Cc3cc(C)ccc3C)c(=O)[nH]2)C1 (stereo not shown) | 3.86 |
| COc1ccc(OC)c(S(=O)(=O)Nc2ccc3[nH]c(=O)[nH]c3c2)c1 | 10.8 |
| COc1cc(OC)cc(C(=O)NCC(=O)OCc2csc(-c3ccccc3)n2)c1 | 7.32 |
| COc1ccc(-c2cc(-c3ccccc3)no2)cc1 | 11.1 |
| COc1ccc(S(=O)(=O)N2CCC(C(=O)NCc3ccco3)CC2)cc1 | -1.25 |
| COc1cc(C2C(C#N)=C(N)Oc3n[nH]c(-c4ccccn4)c32)cc(OC)c1OC (stereo not shown) | 4.5 |

| SMILES | hERG current change (%, negative = inhibition) at 1uM [%] |
| --- | --- |
| COC(=O)CCc1cccc(CCC(=O)OC)c1 | 8.75 |
| O=C(O)c1cccc(NC(=S)N/N=C/c2ccccc2OCc2ccc(Br)cc2)c1 | -6.99 |
| CC(C)Oc1cccc(C(=O)C2CCCN(S(C)(=O)=O)C2)c1 (stereo not shown) | 10.2 |
| CCN(CC)S(=O)(=O)c1ccc(OC)c(NC(=S)Nc2cccc(C)c2C)c1 | 1.79 |
| CC1CC(C)CN(C(=O)CNS(=O)(=O)c2ccc(Br)s2)C1 (stereo not shown) | 10.5 |
| O=c1[nH]c(O)c(C=Nc2ccccc2Oc2ccccc2)c(=O)[nH]1 | 8.3 |
| O=C(NC1CCCCCCC1)c1cc([N+](=O)[O-])ccc1Cl | 6.96 |
| CSCC[C@H](NC(=O)c1cccc([N+](=O)[O-])c1C)c1nc2ccccc2[nH]1 | 1.04 |
| Cc1c(/C=C(\C#N)c2nn(-c3ccccc3)c(N)c2C#N)c2ccccc2n1Cc1ccc(F)cc1 | 1.42 |
| CCOC(=O)CN1C(=O)C(O)=C(C(C)=O)C1c1ccc(F)cc1 (stereo not shown) | 9.29 |
| Cc1cc(C(=O)Nc2c(C)n(C)n(-c3ccccc3)c2=O)c(C)o1 | 19.2 |
| Cc1ccc2cccc(SCC(=O)NCC#N)c2n1 | 11.3 |
| CCOc1ccccc1NC(=O)C(OC(=O)C1CC1)c1ccccc1 (stereo not shown) | 6.2 |
| CCOC(=O)C1=C(C)N(C)C(=O)NC1c1cccc2ccccc12 (stereo not shown) | 2.68 |
| N#CC1=C(SCC(=O)c2ccc(Cl)cc2)NC2=C(C(=O)CCC2)C1c1ccco1 (stereo not shown) | 2.99 |
| CCCN1CN(CCc2ccccc2)CNC1=S | 5.74 |
| CC(=O)NCCc1nc2cc(NS(=O)(=O)c3ccc(Cl)cc3)ccc2n1C | 10.8 |
| CC(=O)c1cccc(CN2CCCC(C(=O)Nc3ccc(-c4ccco4)cc3)C2)c1 (stereo not shown) | 14.3 |
| O=C(CSc1nnc(C2CC2)n1Cc1ccccc1)c1cc2ccccc2o1 | 8.33 |
| CCCOc1ccc(NC(=O)CC2Nc3ccccc3NC2=O)cc1 (stereo not shown) | 14.9 |
| O=[N+]([O-])c1cc2c(cc1/C=N/NS(=O)(=O)c1ccc(Br)cc1)OCO2 | 7.16 |
| COC(=O)c1sccc1NC(=O)c1cc2c(s1)CCCC2 | 5.75 |
